Measurements: the supplement of paper PMC4967469
By IC50 is meant the dose at which the fit gives 50% viability; where the fit passes the top or lowest dose, that dose stands as a limit. AUC, from the same fit, is the share of area under the viability curve across the 256-fold dose range; the more sensitive the line, the further below 1. For some assays here: A top dose marked as inferred was derived from the fitted curves, not read from the paper. For some assays here: Where an entry number is given, a second screen of the drug exists; the two often differ.

What was measured:
Test in all cases: Viability of human cancer cell lines after 72 h of drug (GDSC screen)
PHA-793887 = compound: CC(C)CC(=O)Nc1n[nH]c2c1CN(C(=O)C1CCN(C)CC1)C2(C)C [PHA-793887]; conditions: top dose 10.24 µM
Protocol: (§1)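 Human cancer cell lines in 384-well plates, medium with 10% serum, drug for 72 h over a 256-fold dose range (nine 2-fold or five 4-fold steps up to the top dose). Adherent lines were fixed and stained with the nucleic acid dye Syto60, suspension lines read with resazurin; signal relative to control wells, capped at 0 and 100%. One two-parameter sigmoid per drug and line, fitted in a mixed model over all curves with the slope shared within a line.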

PLX4720 = compound: CCCS(=O)(=O)Nc1ccc(F)c(C(=O)c2c[nH]c3ncc(Cl)cc23)c1F [PLX4720]; conditions: top dose 10 µM
Protocol: as §1

Y-39983 = compound: C[C@@H](N)c1ccc(C(=O)Nc2ccnc3[nH]ccc23)cc1 [Y-39983]; conditions: top dose 20 µM; top dose inferred
Protocol: as §1

TPCA-1 = compound: NC(=O)Nc1sc(-c2ccc(F)cc2)cc1C(N)=O [TPCA-1]; conditions: top dose 20 µM
Protocol: as §1

Epothilone B = compound: C/C(=C\c1csc(C)n1)[C@@H]1C[C@@H]2O[C@]2(C)CCC[C@H](C)[C@H](O)[C@@H](C)C(=O)C(C)(C)[C@@H](O)CC(=O)O1 [Epothilone B]; conditions: top dose 0.032 µM; top dose inferred
Protocol: as §1

[1] = screen: GDSC drug entry 1371, top dose inferred

Cell Line | AUC (PHA-793887) | IC50 (PHA-793887) [µM] | AUC (PLX4720; screen: GDSC drug entry 1036) | IC50 (PLX4720; screen: GDSC drug entry 1036) [µM] | AUC (PLX4720; [1]) | IC50 (PLX4720; [1]) [µM] | AUC (Y-39983) | IC50 (Y-39983) [µM] | AUC (TPCA-1) | IC50 (TPCA-1) [µM] | AUC (Epothilone B) | IC50 (Epothilone B) [µM]
OVCA433 (ovary, adherent) | 0.957 | > 10.2 | 0.985 | > 10 | 0.983 | > 10 | 0.9 | > 20 | 0.939 | > 20 |  | 
OVK-18 (ovary, adherent) | 0.948 | > 10.2 | 0.986 | > 10 | 0.984 | > 10 | 0.981 | > 20 | 0.973 | > 20 |  | 
PEO1 (ovary, adherent) | 0.987 | > 10.2 | 0.985 | > 10 | 0.984 | > 10 | 0.983 | > 20 | 0.909 | > 20 |  | 
QGP-1 (pancreas, adherent) | 0.741 | 4.91 | 0.967 | > 10 | 0.976 | > 10 | 0.92 | > 20 | 0.842 | > 20 |  | 
RCC-AB (kidney, adherent) | 0.867 | > 10.2 | 0.978 | > 10 | 0.716 | 3.12 | 0.931 | > 20 | 0.801 | 13.5 |  | 
RCC-ER (kidney, adherent) | 0.983 | > 10.2 | 0.955 | > 10 | 0.968 | > 10 | 0.985 | > 20 | 0.986 | > 20 |  | 
RCC-FG2 (kidney, adherent) | 0.979 | > 10.2 | 0.916 | > 10 | 0.931 | > 10 | 0.951 | > 20 | 0.836 | 18.7 |  | 
RCC-JF (kidney, adherent) | 0.806 | 6.03 | 0.922 | > 10 | 0.961 | > 10 | 0.707 | 5.22 | 0.814 | 12.7 |  | 
RCC-JW (kidney, adherent) | 0.556 | 0.914 | 0.952 | > 10 | 0.979 | > 10 | 0.909 | > 20 | 0.908 | > 20 |  | 
RCC-MF (kidney, adherent) | 0.872 | > 10.2 | 0.928 | > 10 | 0.942 | > 10 | 0.837 | 19.4 | 0.76 | 9.05 |  | 
SCC90 (head and neck, adherent) |  |  | 0.981 | > 10 | 0.978 | > 10 |  |  |  |  | 0.689 | 0.00854
SK-GT-4 (oesophagus, adherent) | 0.894 | > 10.2 | 0.861 | > 10 | 0.97 | > 10 | 0.976 | > 20 | 0.936 | > 20 |  | 
SK-MEL-5 (melanoma, adherent) | 0.919 | > 10.2 | 0.664 | 1.99 | 0.75 | 3.91 | 0.983 | > 20 | 0.983 | > 20 |  | 
SK-MG-1 (glioma, adherent) | 0.915 | > 10.2 | 0.987 | > 10 | 0.986 | > 10 | 0.888 | > 20 | 0.935 | > 20 |  | 
SNU-61 (large intestine, adherent) | 0.666 | 2.17 | 0.983 | > 10 | 0.976 | > 10 | 0.98 | > 20 | 0.863 | > 20 |  | 
SNU-81 (large intestine, adherent) | 0.681 | 2.45 | 0.97 | > 10 | 0.979 | > 10 | 0.968 | > 20 | 0.977 | > 20 |  | 
SNU-407 (large intestine, adherent) | 0.835 | 8.42 | 0.974 | > 10 | 0.978 | > 10 | 0.865 | > 20 | 0.635 | 3.16 |  | 
SNU-475 (liver, adherent) | 0.96 | > 10.2 |  |  |  |  | 0.93 | > 20 | 0.918 | > 20 | 0.884 | 0.0276
SNU-1040 (large intestine, adherent) | 0.697 | 2.79 |  |  | 0.94 | > 10 | 0.904 | > 20 | 0.718 | 6.51 |  | 
SNU-C5 (large intestine, adherent) | 0.892 | > 10.2 | 0.909 | > 10 | 0.886 | > 10 | 0.963 | > 20 | 0.905 | > 20 |  | 
STS-0421 (soft tissue, adherent) |  |  | 0.983 | > 10 | 0.98 | > 10 |  |  |  |  | 0.649 | 0.00556
SU-DHL-10 (B-cell lymphoma, suspension) | 0.182 | 0.107 | 0.98 | > 10 | 0.997 | > 10 | 0.859 | 9.51 | 0.645 | 2.8 |  | 
SW1116 (large intestine, adherent) | 0.984 | > 10.2 |  |  | 0.984 | > 10 | 0.985 | > 20 | 0.98 | > 20 |  | 
TE-4 (oesophagus, adherent) | 0.82 | 5.84 | 0.983 | > 10 | 0.964 | > 10 | 0.983 | > 20 | 0.979 | > 20 |  | 
UWB1.289 (ovary, adherent) | 0.925 | > 10.2 | 0.955 | > 10 | 0.972 | > 10 | 0.98 | > 20 | 0.794 | 15 |  | 
VMRC-RCW (kidney, adherent) | 0.98 | > 10.2 |  |  |  |  | 0.975 | > 20 | 0.937 | > 20 | 0.309 | 0.00061
YH-13 (glioma, adherent) | 0.979 | > 10.2 | 0.972 | > 10 | 0.979 | > 10 | 0.9 | > 20 | 0.887 | > 20 |  | 
